In the supplement of paper PMC12217912:
The list shows a part of the results. Sequences were assembled here from the parent chain. Values near 0.05 are background.

B1: TEV protease; numbered along this chain (parent)
chain: MGESLFKGPRDYNPISSSICHLTNESDGHTTSLYGIGFGPFIITNKHLFRRNNGTLVVQSLHGVFKVKDTTTLQQHLVDGRDMIIIRMPKDFPPFPQKLKFREPQREERICLVTTNFQTKSMSSMVSDTSCTFPSGDGIFWKHWIQTKDGQCGSPLVSTRDGFIVGIHSASNFTNTNNYFTSVPKNFMELLTNQEAQQWVSGWRLNADSVLWGGHKVFMVKPEEPFQPVKEATQL

Variants of: B1
Test: raw area under fraction-flipped curve 0-4 h after induction (AUC4h, not background-subtracted), DNA-recorder readout of cleavage of the substrate (dimensionless); higher = more cleavage of the substrate by the protease variant
Conditions: temperature: 34 °C; time window: 0-4 h after rhamnose induction
Description: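 In vivo DNA recorder in E. coli TOP10(DE3) ΔrhaA at 34 °C. Each TEVp single-site mutant (parent TEVp 0) is paired with a single-site variant of the 7-mer TEVs (canonical ENLYFQ|S). The substrate sits between flexible linkers in a Bxb1-sfGFP-TEVs-SsrA fusion, so cleavage stabilises Bxb1 and speeds flipping of a recombination array, read by NGS. The value is the raw area under the fraction-flipped curve over 0-4 h after rhamnose induction (AUC4h), with ≥20 reads per time point. It is not background-subtracted; inactive controls average about 0.047.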
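Also: Bxb1 expression induced with 0.2% (w/v) L-rhamnose at OD600 near 0.5, cultures sampled hourly, flipped fraction per protease–substrate barcode pair counted by paired-end Illumina sequencing.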

Row | Variant | area with substrate ENLYFQA | area with substrate ENLYFQC | area with substrate ENLYFQG | area with substrate ENLYFQH | area with substrate ENLYFQI | area with substrate ENLYFQK | area with substrate ENLYFQL | area with substrate ENLYFQM | area with substrate ENLYFQN | area with substrate ENLYFQR | area with substrate ENLYFQS | area with substrate ENLYFQT | area with substrate ENLYFQW | area with substrate ENLYFQY | area with substrate ENLYFQD | area with substrate ENLYFQP | area with substrate ENLYFQQ | area with substrate ENLYFQV | area with substrate ENLYFQF | area with substrate ENLYFQE
1 | T30N | 0.0846 | 0.0921 | 0.0943 | 0.0699 | 0.078 | 0.0619 | 0.0568 | 0.0826 | 0.0759 | 0.0564 | 0.0873 | 0.0498 | 0.0668 | 0.0617 | – | – | – | – | – | –
2 | D27L | 0.0793 | 0.0845 | 0.0878 | 0.0656 | 0.0581 | – | 0.0592 | 0.0977 | 0.0866 | 0.0634 | 0.0925 | 0.0632 | 0.0569 | 0.0781 | 0.0647 | 0.0502 | 0.0667 | 0.0571 | – | –
3 | S18E | 0.0863 | 0.15 | 0.0708 | – | 0.0575 | – | 0.0617 | – | 0.0747 | 0.0506 | 0.106 | 0.0669 | 0.0577 | – | 0.0775 | 0.0703 | – | 0.0585 | – | –
4 | I19S | 0.0912 | – | – | – | – | – | – | – | 0.074 | 0.0598 | 0.0952 | – | 0.0953 | – | – | 0.068 | – | – | – | –
5 | I19N | 0.067 | 0.0634 | 0.0548 | 0.0363 | 0.0535 | 0.0493 | – | 0.0805 | 0.0418 | 0.0513 | 0.0724 | 0.055 | 0.0577 | 0.0518 | – | 0.0554 | – | – | – | –
6 | I19M | 0.0912 | 0.11 | 0.105 | 0.0978 | 0.0619 | 0.0697 | 0.0578 | 0.0713 | 0.078 | 0.0589 | 0.107 | 0.0796 | 0.0828 | 0.073 | – | 0.0682 | 0.0438 | 0.0686 | 0.0782 | –
7 | G39N | 0.0411 | 0.0494 | – | 0.0348 | 0.0364 | 0.037 | – | 0.04 | 0.0367 | 0.0326 | 0.0429 | – | 0.0399 | 0.0557 | – | – | 0.0389 | 0.0247 | 0.0389 | 0.0402
8 | G39C | 0.0478 | 0.0535 | 0.0456 | 0.0502 | 0.0395 | 0.0609 | 0.0416 | 0.0444 | 0.0426 | 0.0487 | 0.0458 | – | 0.0423 | – | – | 0.0461 | – | 0.0421 | 0.0405 | –
9 | G39T | 0.0568 | 0.0319 | 0.0465 | 0.0247 | 0.039 | 0.0403 | 0.0595 | 0.031 | 0.0421 | 0.0478 | 0.0473 | – | 0.0403 | 0.0282 | 0.0329 | – | 0.0488 | 0.0437 | – | –
10 | I42Q | 0.0609 | 0.0364 | – | 0.0482 | 0.0309 | – | – | 0.0388 | – | 0.0392 | 0.043 | – | – | – | – | – | – | – | 0.0373 | 0.0455
11 | T44E | 0.0487 | 0.036 | – | 0.0401 | – | – | 0.0392 | – | 0.0484 | 0.0443 | 0.0424 | 0.0382 | 0.0371 | – | – | 0.0244 | – | 0.0313 | – | –
12 | T44G | 0.0671 | 0.0812 | 0.0793 | 0.0653 | 0.0561 | – | 0.0531 | 0.0678 | 0.0368 | 0.0543 | 0.0758 | 0.0548 | 0.0651 | 0.0632 | – | 0.0282 | – | – | – | –
13 | P9K | 0.0779 | 0.0857 | 0.0862 | – | 0.0616 | – | 0.0662 | 0.083 | 0.0694 | 0.0715 | 0.0972 | – | 0.0749 | – | 0.07 | – | – | 0.0545 | – | –
14 | P9Y | 0.164 | 0.111 | 0.11 | 0.0786 | 0.0592 | – | 0.0679 | 0.0922 | 0.098 | – | 0.112 | 0.0584 | 0.0687 | 0.0817 | – | 0.0428 | 0.0666 | 0.0638 | – | 0.0605
15 | T31N | 0.125 | – | 0.0745 | – | 0.0701 | 0.0639 | 0.0604 | 0.0914 | 0.075 | 0.0588 | 0.0904 | 0.0692 | 0.0788 | 0.0771 | 0.0808 | 0.0632 | – | 0.0742 | 0.0847 | –
16 | T31K | 0.075 | 0.0639 | – | – | 0.0549 | 0.072 | 0.0502 | 0.0566 | – | 0.0453 | 0.0694 | 0.0528 | 0.0651 | 0.054 | 0.0424 | – | – | 0.0717 | – | –
17 | T31S | 0.112 | 0.128 | 0.0815 | 0.0901 | 0.071 | – | 0.0763 | 0.103 | 0.0841 | 0.0641 | 0.104 | 0.0864 | 0.0827 | 0.0938 | 0.0868 | – | 0.0593 | 0.0766 | 0.0876 | –
18 | F38G | 0.0491 | – | – | – | – | – | – | – | – | 0.0414 | 0.0446 | – | – | – | – | – | – | – | 0.0417 | –
19 | F38T | 0.0859 | 0.103 | 0.0816 | 0.0707 | 0.0491 | 0.0594 | 0.0554 | 0.0729 | 0.0677 | 0.0612 | 0.0871 | 0.0675 | 0.0356 | 0.063 | 0.0654 | 0.0546 | 0.056 | – | – | –
20 | P40Y | 0.112 | 0.106 | 0.108 | 0.079 | 0.0523 | 0.0614 | 0.0639 | 0.0881 | 0.0798 | 0.0617 | 0.101 | 0.0761 | 0.0671 | 0.0962 | 0.0602 | 0.0606 | 0.0637 | 0.0607 | 0.077 | –
21 | E25L | 0.0955 | 0.109 | 0.0936 | 0.065 | 0.0434 | 0.071 | – | 0.132 | 0.08 | 0.0526 | 0.103 | 0.0628 | 0.0651 | – | 0.0726 | 0.061 | – | 0.0575 | – | –
22 | E25V | 0.121 | 0.107 | 0.106 | 0.0705 | 0.0689 | 0.067 | – | 0.0701 | 0.0747 | 0.0709 | 0.0979 | – | 0.0661 | – | – | 0.0595 | 0.0772 | 0.0662 | 0.0829 | –
23 | E25D | 0.0968 | 0.121 | 0.102 | 0.0782 | 0.0591 | 0.0718 | 0.0491 | 0.0927 | 0.0857 | 0.0618 | 0.101 | 0.0701 | 0.0659 | 0.0828 | 0.0775 | 0.0634 | 0.0855 | 0.0512 | – | –
24 | G37M | 0.0758 | 0.0878 | – | 0.0682 | 0.071 | 0.0584 | 0.0475 | – | 0.074 | 0.0629 | 0.0801 | 0.048 | – | 0.0628 | – | 0.056 | – | – | – | –
25 | G37V | 0.0885 | – | 0.0874 | – | 0.0563 | – | 0.0523 | 0.0702 | 0.0653 | – | 0.0798 | 0.0557 | 0.0619 | 0.0944 | – | 0.0571 | 0.0672 | 0.0582 | – | –
